Measurements published in PubChem BioAssay AID485294 (National Center for Advancing Translational Sciences (NCATS), 2010).
Out of some 370,000 compounds screened, about 150 (0.041%) were called active. The shares of active, inactive and inconclusive entries below differ from those in the screen. The call rests on the fitted dose curve; in most records, active means well fitted inhibition curve with a large enough effect; inconclusive means small, poorly fitted or top-dose-only effect; inactive means flat fitted curve, though single readings scatter. Potencies of inconclusive entries are left out as doubtful fits.

What follows are compounds tested against Beta-lactamase (Escherichia coli (strain K12)) (UniProt P00811) (assay: qHTS Inhibitors of AmpC Beta-Lactamase (assay with detergent)). Conditions: AmpC hydrolysis of nitrocefin, absorbance 480 nm, 0.01% Triton; activity change, negative = inhibition: at 114 µM (top of the series).
UniProt P00811, sequence (P00811 whole entry, looked up): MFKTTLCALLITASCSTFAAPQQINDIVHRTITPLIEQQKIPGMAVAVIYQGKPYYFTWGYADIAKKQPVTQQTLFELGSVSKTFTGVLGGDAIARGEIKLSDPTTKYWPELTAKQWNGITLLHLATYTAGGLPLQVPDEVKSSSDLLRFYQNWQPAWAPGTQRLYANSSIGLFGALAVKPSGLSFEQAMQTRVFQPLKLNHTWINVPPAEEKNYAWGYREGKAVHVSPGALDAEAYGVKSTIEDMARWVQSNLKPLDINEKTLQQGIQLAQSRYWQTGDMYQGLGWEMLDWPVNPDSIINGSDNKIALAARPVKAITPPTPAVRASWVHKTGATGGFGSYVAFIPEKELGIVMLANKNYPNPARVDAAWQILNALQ
Method in brief: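 20 mM phosphate pH 7.0 + 0.01% (detergent screen) or 0.0001% Triton X-100; 5.3 nM AmpC reagent; cpd preinc 15 min RT; nitrocefin (800 uM stock) to start; A480 q20 s × 4 min; Activity was normalised to no-enzyme and no-compound control wells.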
Further: nearly all actives have a fitted effect of over 25% in size.
Potency means the concentration at half of the fitted maximal effect; tags describe the fitted curve by direction and shape.
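Wherever activity change, negative = inhibition is given: 0% = no-compound wells and -100% = no-enzyme wells.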

SMILES	Potency	activity change, negative = inhibition
Cc1ccc(CN2C(=O)CCSc3ccc(Cl)cc32)cc1	inconclusive [inhibitor, single point]	
Cn1cc(C=O)c2ccccc21		inactive: 0.826%
COC(=O)CN(c1nc(C)c(Br)c(OC)n1)S(=O)(=O)c1ccccc1		inactive: -17.2%
O=C(NC1CCCCC1)N1CCC(n2c(=O)[nH]c3ccccc32)CC1	inconclusive [inhibitor, full curve, poor fit]	
COc1ccc(-c2nc(SCC(=O)Nc3c(C)cc(C)cc3C)n[nH]2)cc1		inactive: 9.65%
CCOC(=O)c1c(C)oc2ncnc(Nc3ccc(OC)c(OC)c3)c12		inactive: 8.62%
O=C(CCCn1c(SCc2cccc([N+](=O)[O-])c2)nc2ccccc2c1=O)NCC1CCCO1 (centres undefined)	inconclusive [inhibitor, single point]	
CCOC(=O)c1ccc(N2CCCCC2)c(NS(=O)(=O)c2cccc(C(F)(F)F)c2)c1		inactive: -6.29%
C/C(=N/NS(=O)(=O)c1ccc(F)cc1)c1ccncc1	inconclusive [inhibitor, full curve, poor fit]	
COc1ccc2sc(NC(=O)NC(=O)c3c(Cl)cccc3Cl)nc2c1		inactive: -5.17%
c1nc(N2CCN(Cc3ccc4c(c3)OCO4)CC2)c2[nH]cnc2n1	inconclusive [inhibitor, partial curve, poor fit]	
CCN(Cc1ccccc1)C(=O)c1ccc(C(=O)N(CC)Cc2ccccc2)cc1	inconclusive [inhibitor, full curve, poor fit]	
COc1cc(C(=O)NCC(=O)NC(C)c2ccc(-n3ccnc3)cc2)cc(OC)c1OC (centres undefined)	inconclusive [inhibitor, full curve, poor fit]	
COC(=O)c1c(C(=O)OC)c(-c2ccc(C)cc2)n2c1CS(=O)(=O)C2	inconclusive [inhibitor, full curve, poor fit]	
CS(=O)(=O)c1ccc(Cl)c(NC(=O)COC(=O)Cc2c[nH]c3ccccc23)c1	inconclusive [inhibitor, full curve, poor fit]	
O=C(OCc1nnc(-c2ccccc2)o1)c1ccc(CO)cc1		inactive: 1.49%
O=C(COC(=O)CCCOc1ccccc1)NC1CCS(=O)(=O)C1 (centres undefined)	inconclusive [inhibitor, partial curve, poor fit]	
CCC1CCCCN1CCCNC(=O)CCC(=O)N1CCOc2ccccc21 (centres undefined)	inconclusive [inhibitor, full curve, poor fit]	
Cc1ccc(S(=O)(=O)N2CCN(C(=O)COC(=O)Cc3cccc(C(F)(F)F)c3)CC2)c(C)c1	inconclusive [inhibitor, full curve, poor fit]	
Cc1cc(=O)oc2c3c(cc(OCC(=O)N4CCC(C(=O)O)CC4)c12)OC(C)(C)CC3	inconclusive [inhibitor, single point]	
CC(C)C(=O)Nc1sc2c(c1C#N)CCCCC2		inactive: -12.5%
N/C(Cc1ccc([N+](=O)[O-])cc1)=N\OC(=O)c1ccc(Br)cc1	inconclusive [inhibitor, single point]	

SMILES	Potency	activity change, negative = inhibition
NS(=O)(=O)c1ccc(NC(=O)C2Cc3ccccc3N2C(=O)c2ccccc2)cc1 (centres undefined)		inactive: 9.63%
CN1CCc2ccc(NC(=O)c3ccc(C(F)(F)F)cc3)cc2C1	inconclusive [inhibitor, full curve, poor fit]	
Cc1cccc(NC(=O)CSc2nnc(NC(=O)CN3CCCCC3)s2)c1		inactive: -9.84%
COc1ccc(OC)c(CCNC(=O)Cn2ncc3c([nH]c4ccccc43)c2=O)c1		inactive: 19.1%
COC(=O)c1ccccc1NC(NC(=O)c1ccco1)C(=O)c1ccc(C)cc1 (centres undefined)	inconclusive [inhibitor, full curve, poor fit]	
CN1CCN(C(=O)c2ccc(S(=O)(=O)Nc3ccccc3)cc2)CC1	inconclusive [inhibitor, full curve, poor fit]	
COC(=O)c1ccccc1NC(=O)c1cc(C2CC2)on1	inconclusive [inhibitor, full curve, poor fit]	
CCCCc1[nH]c(=O)c(C#N)c2c1CSC(C)(C)C2	inconclusive [inhibitor, partial curve]	
CC1=CC2=NC(=O)/C(=C\c3cc(C)n(-c4cccc(Cl)c4)c3C)C(=N)N2O1	inconclusive [inhibitor, full curve, poor fit]	
CCCOc1ccc(N2C(=O)CC(N3CCN(c4ccccc4OC)CC3)C2=O)cc1 (centres undefined)	inconclusive [inhibitor, partial curve, poor fit]	
CC(=O)n1c(Cl)c(NC(=O)CCl)c2ccccc21	inconclusive [inhibitor, full curve, poor fit]	
Cc1cc(C)c(C(=O)C(C)OC(=O)c2ccccn2)cc1C (centres undefined)		inactive: 0.339%
C(=N\Nc1ccc2nncn2n1)/c1ccccn1		inactive: 1.14%
O=C(Cc1nc2ccccc2[nH]c1=O)c1ccccc1		inactive: -0.283%
CCOC(=O)c1c(C)nn(-c2ccc(NC(=O)/C=C/C(=O)O)cc2)c1C		inactive: -5.79%
C[C@@H](C(=O)Nc1ccc2ccccc2c1)[C@@H]1C[C@@]1(C)[C@@H](NC(=O)c1ccccc1)c1ccccc1		inactive: -3.38%
CCC12CC3CC(C1)CC(C(=O)Nc1nn[nH]n1)(C3)C2	inconclusive [inhibitor, full curve, poor fit]	
O=C1CCCCN1CCC(=O)N1CCCC(N2CCN(c3ccccc3)CC2)C1 (centres undefined)	inconclusive [inhibitor, single point]	
Cc1ccc(CNS(=O)(=O)CCNC(=O)c2ccccc2)cc1	inconclusive [inhibitor, full curve]	
COc1ccc(-c2cc(C(=O)NC(C)c3ccccn3)c3ccccc3n2)cc1OC (centres undefined)		inconclusive: -20.5% [inhibitor]
O=C(N/N=C/c1ccc(F)cc1)c1sccc1OCc1ccc(F)cc1	inconclusive [inhibitor, single point]	
CCCn1c(C)nc2c(c1=O)c1nc3ccccc3nc1n2CCC1=CCCCC1		inactive: -6.64%
